This passage reports growth results from PubChem BioAssay (NCI).

Where a structure was tested more than once in an assay, its records may differ in their call.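 In brief: 96-well plates, 48 h treatment, single concentration, percent growth endpoint.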 Certain results were filed several times, with different values. This list holds those alone. How the source made its calls: active means growth percent below 10; inactive means the rest. An entry can have further records. The records of an entry repeat one measurement (runs, samples, wells, individuals or studies). A tag in brackets gives the origin of a value. Letters count within one entry. A date in brackets names the month of the test.

Among the test systems are UACC-62 melanoma; TK-10 renal; MCF7 breast.
What all share (test): NCI-60 one-dose screen, 48 h (100 = growth as untreated, 0 = no growth, -100 = all killed)
Conditions in all cases: 100 µM

Turning to `O=C1NC(N/N=C\C(O)C(O)C(O)C(O)CO)=N/C1=C/c1ccccc1` (stereo unspecified), the growth entry is “inactive: 63.5%, 19.8% [sample A, 1996-03] and active: -99.6%, -100% [sample B, 1996-03] and inactive: 85.2%, 51.7% [sample C, 1996-03]” in the experiment with UACC-62 melanoma; “inactive: 129%, 69.6% [sample A, 1996-03] and active: -61.5%, -100% [sample B, 1996-03] and inactive: 140%, 83.8% [sample C, 1996-03]” in the experiment on TK-10 renal; “inactive: 52.7%, 37.2% [sample A, 1996-03] and active: -69.8%, -100% [sample B, 1996-03] and inactive: 74.8%, 57.9% [sample C, 1996-03]” with MCF7 breast.

As for `Cc1ccc(/C=C2/N=C(N/N=C\C(O)C(O)C(O)CO)NC2=O)cc1` (stereo unspecified), the growth entry in the experiment on UACC-62 melanoma is “inactive: 90.4% [sample A, 1996-03] and active: 4.23% [sample A, 1996-03] and inactive: 95.5%, 28.2% [sample B, 1996-03]”; in the experiment on TK-10 renal, “inactive: 125%, 40.6% [sample A, 1996-03] and inactive: 144%, 73.3% [sample B, 1996-03]”; in the experiment on MCF7 breast, “inactive: 76.8%, 10.6% [sample A, 1996-03] and inactive: 77.7%, 32.1% [sample B, 1996-03]”.
